From US20220402989A1 (Regeneron, published 2022)
Blank lines part the entries; values can stand above or below the binder they belong to.

Legend:
[1] = molecular target: T1, human IL2Rα expressed with a C-terminal hexahistidine tag (human, UniProt P01589 22-213); assay: SPR (Biacore S-200), construct captured via anti-human Fab, 1 µM hIL2Rα.6H injected, 25 C
T1 construct: Recombinant monomeric protein in solution; also called hIL2Rα.6H; R&D Catalog #10305-RL-050; not shown: C-terminal hexahistidine tag
T1 sequence (looked up): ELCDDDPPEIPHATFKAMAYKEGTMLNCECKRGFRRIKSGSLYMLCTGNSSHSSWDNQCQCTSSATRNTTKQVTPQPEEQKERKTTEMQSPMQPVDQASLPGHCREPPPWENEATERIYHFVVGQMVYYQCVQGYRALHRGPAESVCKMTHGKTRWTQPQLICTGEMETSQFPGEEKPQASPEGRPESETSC

[2] = molecular target: T2, human PD-1 expressed with a C-terminal myc-myc-hexahistidine tag (human); assay: SPR (Biacore), antibody captured via anti-human Fc, hPD-1.mmH in solution, 25 C
T2 construct: also called hPD-1.mmH; hPD-1.mmh
Method: The CM5 Biacore sensor surface was derivatized by amine coupling with a monoclonal mouse anti-human Fc antibody (GE, #BR-1008-39). All Biacore binding studies were performed in a buffer composed of 0.01M HEPES pH 7.4, 0.15M NaCl, 3 mM EDTA, 0.05% v/v Surfactant P20 (HBS-EP running buffer). […] Antibody-reagent association was monitored for 4 or 5 minutes, while dissociation in HBS-EP running buffer was monitored for 10 minutes. […] All binding kinetics experiments were performed at 25° C.
Kinetic association (kₐ) and dissociation (kd) rate constants were determined by fitting the real-time sensorgrams to a 1:1 binding model using Scrubber 2.0c curve fitting software. Binding dissociation equilibrium constants (KD) and dissociative half-lives (t½) were calculated from the kinetic rate constants as: […]

[3] = molecular target: T1, human IL2Rα expressed with a C-terminal …; assay: SPR (Biacore S-200), construct captured via anti-human Fab, 1 µM hIL2Rα.6H injected, 25 C; normalized to REGN1945 and REGN8512
[4] = molecular target: T3, human IL2 receptor beta expressed with a C-terminal myc-myc-hexahistidine tag (human, UniProt P14784 27-240); assay: SPR (Biacore S-200), construct captured via anti-human Fab, 1 µM hIL2Rβ.mmH injected, 25 C
T3 construct: Recombinant monomeric protein in solution; also called hIL2Rβ.mmH; hIL2RR.mmH; not shown: C-terminal myc-myc-hexahistidine tag
T3 sequence (looked up): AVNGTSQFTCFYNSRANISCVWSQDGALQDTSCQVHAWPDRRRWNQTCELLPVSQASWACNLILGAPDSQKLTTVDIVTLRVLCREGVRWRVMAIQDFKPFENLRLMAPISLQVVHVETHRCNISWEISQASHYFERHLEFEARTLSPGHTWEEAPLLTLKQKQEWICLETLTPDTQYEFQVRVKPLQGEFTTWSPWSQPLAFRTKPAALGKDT

[5] = molecular target: T4, human IL2 receptor gamma expressed with a C-terminal myc-myc-hexahistidine tag (human, UniProt P31785 23-262); assay: SPR (Biacore S-200), sequential: 1 µM hIL2Rβ.mmH, then mixture of hIL2Rβ.mmH and 1 µM hIL2Rγ.mmH, 25 C; normalized to REGN1945 and REGN8512
T4 construct: Recombinant monomeric protein in solution; also called hIL2Rγ.mmH; REGN1183; not shown: C-terminal myc-myc-hexahistidine tag
T4 sequence (looked up): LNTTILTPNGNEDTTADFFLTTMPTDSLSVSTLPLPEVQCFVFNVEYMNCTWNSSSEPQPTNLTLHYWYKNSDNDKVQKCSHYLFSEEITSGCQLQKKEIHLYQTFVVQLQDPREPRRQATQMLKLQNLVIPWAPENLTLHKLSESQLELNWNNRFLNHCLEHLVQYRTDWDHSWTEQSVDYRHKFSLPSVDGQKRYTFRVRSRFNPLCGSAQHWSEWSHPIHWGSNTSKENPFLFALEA

[6] = molecular target: T3, human IL2 receptor beta expressed with …; assay: SPR (Biacore S-200), construct captured via anti-human Fab, 1 µM hIL2Rβ.mmH injected, 25 C; normalized to REGN1945 and REGN8512
[7] = molecular target: T5, human PD1 expressed endogenously on YT/STAT5 luc/Cl4 cells (human, UniProt Q15116 25-288); assay: flow cytometry (FACS) titration on YT/STAT5 luc/CL4 cells with endogenous hPD1, APC anti-human Fc-gamma secondary, MFI_APC
T5 construct: whole, on cells; also called hPD1; PD1+ cells
Method: To compare hPD1 binding of αhPD1-IL2Rα-IL2 proteins to their respective parental anti-hPD1 antibodies, YT/STAT5 luc/Cl4 cells expressing endogenous levels of hPD1 were washed twice with FACS wash (PBS+2% FBS) and resuspended at 1×10\hat{ }6 cells/ml in FACS wash. Cells (100 μl/well) were then plated in 96 well U bottom plates. Cells were spun down (1200 RPM, 5 minutes) and resuspended in 100 μl/well of the various antibody dilutions listed in mAb clone IDs. The antibody titrations were prepared starting at 20 μg/ml with a 6-fold dilution using FACS wash. Cells were incubated with the antibodies for 30 minutes at 4° C. The unbound antibodies were then removed by washing the cells twice using FACS wash. The cells were then resuspended in 100 μl/well of 1:200 dilution of APC-anti-human Fcγ secondary antibody. The cells were incubated for 30 minutes at 4° C. The unbound antibodies were then removed by washing the cells twice using FACS wash. The cells were then resuspended in 160 μl/well of FACS wash and run to test binding using BD FACSCanto™ Flow Cytometer.

[8] = molecular target: T4, human IL2 receptor gamma expressed with …; assay: SPR (Biacore S-200), sequential: 1 µM hIL2Rβ.mmH, then mixture of hIL2Rβ.mmH and 1 µM hIL2Rγ.mmH, 25 C

T5 sequence (Q15116 25-288): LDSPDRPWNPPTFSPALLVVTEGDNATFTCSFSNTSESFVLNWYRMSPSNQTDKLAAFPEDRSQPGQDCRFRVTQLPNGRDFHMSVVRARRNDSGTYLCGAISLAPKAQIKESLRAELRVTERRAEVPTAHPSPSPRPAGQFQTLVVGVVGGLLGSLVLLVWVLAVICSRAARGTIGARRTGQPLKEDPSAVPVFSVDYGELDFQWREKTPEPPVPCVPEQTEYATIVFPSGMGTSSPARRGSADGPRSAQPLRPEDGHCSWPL

1 µM hIL2Rα.6H Bind (RU) [1]: 0.6 RU
90 nM or 100 nM hPD-1.mmH Bind (RU) [2]: 41.8 RU
Kd [2]: 3.92 nM
koff [2]: 0.000582 s⁻¹
kon [2]: 148000 M⁻¹ s⁻¹
t1/2 [2]: 19.9 min
% Normalized Activity [3]: 1.2%
1 µM hIL2Rβ.mmH Bind (RU) [4]: 16.8 RU
% Normalized Activity [5]: 9.3%
% Normalized Activity [6]: 71.9%
EC50 [7]: 6.31 nM
1 µM hIL2Rγ.mmH Bind (RU) [8]: 1.4 RU
B1: REGN10597 (other)
heavy: QVQLVQSGAEVKRPGSSVKVSCKVSGVTFRNFAIIWVRQAPGQGLEWMGGIIPFFSAANYAQSFQGRVTITPDESTSTAFMELASLRSEDTAVYYCAREGERGHTYGFDYWGQGTLVTVSSASTKGPSVFPLAPCSRSTSESTAALGCLVKDYFPEPVTVSWNSGALTSGVHTFPAVLQSSGLYSLSSVVTVPSSSLGTKTYTCNVDHKPSNTKVDKRVESKYGPPCPPCPAPPVAGPSVFLFPPKPKDTLMISRTPEVTCVVVDVSQEDPEVQFNWYVDGVEVHNAKTKPREEQFNSTYRVVSVLTVLHQDWLNGKEYKCKVSNKGLPSSIEKTISKAKGQPREPQVYTLPPSQEEMTKNQVSLTCLVKGFYPSDIAVEWESNGQPENNYKTTPPVLDSDGSFFLYSRLTVDKSRWQEGNVFSCSVMHEALHNHYTQKSLSLSLGKGGGGSGGGGSGGGGSELCDDDPPEIPHATFKAMAYKEGTMLNCECKRGFRRIKSGSLYMLCTGNSSHSSWDNQCQCTSSATRNTTKQVTPQPEEQKERKTTEMQSPMQPVDQASLPGHCREPPPWENEATERIYHFVVGQMVYYQCVQGYRALHRGPAESVCKMTHGKTRWTQPQLICTGGGGGSGGGGSGGGGSGGGGSGGGGS[about 150 residues skipped]
light: [about 100 residues skipped][about 120 residues skipped]
notes: also called anti-PD1-IL2Rα-IL2; aPD1(9048)-IL2Ra-IL2

1 µM hIL2Rα.6H Bind (RU) [1]: 2.1 RU
90 nM or 100 nM hPD-1.mmH Bind (RU) [2]: 44.7 RU
Kd [2]: 4.59 nM
koff [2]: 0.000476 s⁻¹
kon [2]: 104000 M⁻¹ s⁻¹
t1/2 [2]: 24.3 min
% Normalized Activity [3]: 6.6%
1 µM hIL2Rβ.mmH Bind (RU) [4]: 15.6 RU
% Normalized Activity [5]: 12.6%
% Normalized Activity [6]: 61.6%
EC50 [7]: 10.6 nM
1 µM hIL2Rγ.mmH Bind (RU) [8]: 2.2 RU
B2: REGN10595 (other)
heavy: QVQLVQSGTEVRKPGSSVKVSCKTSGVTFNNYAITWVRQAPGQGLEWMGGIIPVFSPPNYAQKFQGRVTITADESTNTAYMELNSLRSDDTAIYFCAREGERGYTYGYDYWGQGTLVTVSSASTKGPSVFPLAPCSRSTSESTAALGCLVKDYFPEPVTVSWNSGALTSGVHTFPAVLQSSGLYSLSSVVTVPSSSLGTKTYTCNVDHKPSNTKVDKRVESKYGPPCPPCPAPPVAGPSVFLFPPKPKDTLMISRTPEVTCVVVDVSQEDPEVQFNWYVDGVEVHNAKTKPREEQFNSTYRVVSVLTVLHQDWLNGKEYKCKVSNKGLPSSIEKTISKAKGQPREPQVYTLPPSQEEMTKNQVSLTCLVKGFYPSDIAVEWESNGQPENNYKTTPPVLDSDGSFFLYSRLTVDKSRWQEGNVFSCSVMHEALHNHYTQKSLSLSLGKGGGGSGGGGSGGGGSELCDDDPPEIPHATFKAMAYKEGTMLNCECKRGFRRIKSGSLYMLCTGNSSHSSWDNQCQCTSSATRNTTKQVTPQPEEQKERKTTEMQSPMQPVDQASLPGHCREPPPWENEATERIYHFVVGQMVYYQCVQGYRALHRGPAESVCKMTHGKTRWTQPQLICTGGGGGSGGGGSGGGGSGGGGSGGGGS[about 150 residues skipped]
light: [about 100 residues skipped][about 120 residues skipped]
notes: also called anti-PD1-IL2Rα-IL2; anti-hPD1-IL2Rα-IL2

1 µM hIL2Rα.6H Bind (RU) [1]: 0.9 RU
90 nM or 100 nM hPD-1.mmH Bind (RU) [2]: 46.9 RU
Kd [2]: 2.83 nM
koff [2]: 0.000302 s⁻¹
kon [2]: 107000 M⁻¹ s⁻¹
t1/2 [2]: 38.3 min
% Normalized Activity [3]: 1.3%
1 µM hIL2Rβ.mmH Bind (RU) [4]: 13.3 RU
% Normalized Activity [5]: 5.5%
% Normalized Activity [6]: 46.4%
EC50 [7]: 1.55 nM
1 µM hIL2Rγ.mmH Bind (RU) [8]: 0.8 RU
B3: REGN10486 (other)
heavy: EVQLLESGGVLVQPGGSLRLSCAASGFTFSNFGMTWVRQAPGKGLEWVSGISGGGRDTYFADSVKGRFTISRDNSKNTLYLQMNSLKGEDTAVYYCVKWGNIYFDYWGQGTLVTVSSASTKGPSVFPLAPCSRSTSESTAALGCLVKDYFPEPVTVSWNSGALTSGVHTFPAVLQSSGLYSLSSVVTVPSSSLGTKTYTCNVDHKPSNTKVDKRVESKYGPPCPPCPAPPVAGPSVFLFPPKPKDTLMISRTPEVTCVVVDVSQEDPEVQFNWYVDGVEVHNAKTKPREEQFNSTYRVVSVLTVLHQDWLNGKEYKCKVSNKGLPSSIEKTISKAKGQPREPQVYTLPPSQEEMTKNQVSLTCLVKGFYPSDIAVEWESNGQPENNYKTTPPVLDSDGSFFLYSRLTVDKSRWQEGNVFSCSVMHEALHNHYTQKSLSLSLGKGGGGSGGGGSGGGGSELCDDDPPEIPHATFKAMAYKEGTMLNCECKRGFRRIKSGSLYMLCTGNSSHSSWDNQCQCTSSATRNTTKQVTPQPEEQKERKTTEMQSPMQPVDQASLPGHCREPPPWENEATERIYHFVVGQMVYYQCVQGYRALHRGPAESVCKMTHGKTRWTQPQLICTGGGGGSGGGGSGGGGSGGGGSGGGGS[about 150 residues skipped]
light: DIQMTQSPSSLSASVGDSITITCRASLSINTFLNWYQQKPGKAPNLLIYAASSLHGGVPSRFSGSGSGTDFTLTIRTLQPEDFATYYCQQSSNTPFTFGPGTVVDFRRTVAAPSVFIFPPSDEQLKSGTASVVCLLNNFYPREAKVQWKVDNALQSGNSQESVTEQDSKDSTYSLSSTLTLSKADYEKHKVYACEVTHQGLSSPVTKSFNRGEC
notes: as for B2
